# The supplement of paper PMC8728848
# The list shows a part of the results.
# Columns and labels:
# Test in all cases: glycan array binding signal (z-score within array); higher = stronger binding
# Conditions in all cases: glycan notation: IUPAC condensed, linker removed
# [1] = target: GalNAc(b1-4)GlcNAc(b1-2)Man
# In short: (§1)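 Arrays were curated from the Consortium for Functional Glycomics database, 3228 in total, and kept only where the protein sequence was available. Binding is expressed as a within-array Z-score. This score was averaged across arrays of the same protein sequence at different concentrations or buffers and across linkers, and negative values can be read as non-binding.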
# [2] = target: GalNAc(b1-4)GlcNAc(b1-2)Man(a1-3)[GalNAc(b1-4)GlcNAc(b1-2)Man(a1-6)]Man(b1-4)GlcNAc(b1-4)GlcNAc
# In short: as §1
# [3] = target: GalNAc(b1-4)GlcNAc(b1-3)GalNAc(b1-4)GlcNAc
# In short: as §1
# GalNAc(b1-4)GlcNAc6S = target: GalNAc(b1-4)GlcNAc6S
# In short: as §1
# GalNAc(b1-6)GalNAc = target: GalNAc(b1-6)GalNAc
# In short: as §1
# GalNAc3S(b1-4)GlcNAc = target: GalNAc3S(b1-4)GlcNAc
# In short: as §1
# GalNAc3S(b1-4)GlcNAc3S = target: GalNAc3S(b1-4)GlcNAc3S
# In short: as §1
# [4] = target: GalNAc3S(b1-4)[Fuc(a1-3)]GlcNAc
# In short: as §1
# GalNAc4S6S(b1-4)GlcNAc = target: GalNAc4S6S(b1-4)GlcNAc
# In short: as §1
# GalNAc6S(b1-4)GlcNAc = target: GalNAc6S(b1-4)GlcNAc
# In short: as §1
# Glc(a1-4)Glc = target: Glc(a1-4)Glc
# In short: as §1
# [5] = target: Glc(a1-4)Glc(a1-4)Glc(a1-4)Glc
# In short: as §1
# Glc(a1-6)Glc(a1-6)Glc = target: Glc(a1-6)Glc(a1-6)Glc
# In short: as §1
# [6] = target: Glc(a1-6)Glc(a1-6)Glc(a1-6)Glc
# In short: as §1
# Glc(b1-4)Glc = target: Glc(b1-4)Glc
# In short: as §1
# Glc(b1-6)Glc = target: Glc(b1-6)Glc
# In short: as §1
# GlcA(b1-3)Gal = target: GlcA(b1-3)Gal
# In short: as §1
# GlcA(b1-3)GlcNAc = target: GlcA(b1-3)GlcNAc
# In short: as §1
# GlcA(b1-6)Gal = target: GlcA(b1-6)Gal
# In short: as §1
# [7] = target: GlcA3S(b1-3)Gal(b1-4)GlcNAc(b1-2)Man
# In short: as §1
# [8] = target: GlcA3S(b1-3)Gal(b1-4)GlcNAc(b1-3)Gal(b1-4)Glc
# In short: as §1
# [9] = target: GlcNAc(a1-3)Gal(b1-4)GlcNAc
# In short: as §1
# [10] = target: GlcNAc(a1-4)Gal(b1-3)GlcNAc
# In short: as §1
# [11] = target: GlcNAc(a1-4)Gal(b1-4)GalNAc
# In short: as §1
# [12] = target: GlcNAc(a1-4)Gal(b1-4)GlcNAc
# In short: as §1
# [13] = target: GlcNAc(a1-4)Gal(b1-4)GlcNAc(b1-3)Gal(b1-4)Glc
# In short: as §1
# [14] = target: GlcNAc(a1-4)Gal(b1-4)GlcNAc(b1-3)Gal(b1-4)GlcNAc
# In short: as §1
# [15] = target: GlcNAc(a1-4)Gal(b1-4)GlcNAc(b1-3)Gal(b1-4)GlcNAc(b1-3)Gal(b1-4)GlcNAc
# In short: as §1
# [16] = target: GlcNAc(a1-4)Gal(b1-4)GlcNAc(b1-3)Gal(b1-4)[Fuc(a1-3)]GlcNAc(b1-3)Gal(b1-4)[Fuc(a1-3)]GlcNAc
# In short: as §1
# [17] = target: GlcNAc(a1-6)Gal(b1-4)GlcNAc
# In short: as §1
# [18] = target: GlcNAc(b1-2)Gal(b1-3)GalNAc
# In short: as §1
# [19] = target: GlcNAc(b1-2)Man(a1-3)[GlcNAc(b1-2)Man(a1-6)]Man(b1-4)GlcNAc(b1-4)GlcNAc
# In short: as §1
# [20] = target: GlcNAc(b1-2)Man(a1-3)[GlcNAc(b1-2)Man(a1-6)]Man(b1-4)GlcNAc(b1-4)[Fuc(a1-6)]GlcNAc
# In short: as §1
# [21] = target: GlcNAc(b1-2)Man(a1-3)[GlcNAc(b1-4)][GlcNAc(b1-2)Man(a1-6)]Man(b1-4)GlcNAc(b1-4)GlcNAc
# In short: as §1
# [22] = target: GlcNAc(b1-2)Man(a1-3)[GlcNAc(b1-4)][GlcNAc(b1-2)Man(a1-6)]Man(b1-4)GlcNAc(b1-4)[Fuc(a1-6)]GlcNAc
# In short: as §1
# [23] = target: GlcNAc(b1-2)[GlcNAc(b1-4)]Man(a1-3)[GlcNAc(b1-2)Man(a1-6)]Man(b1-4)GlcNAc(b1-4)GlcNAc
# In short: as §1
# [24] = target: GlcNAc(b1-2)[GlcNAc(b1-4)]Man(a1-3)[GlcNAc(b1-4)][GlcNAc(b1-2)Man(a1-6)]Man(b1-4)GlcNAc(b1-4)GlcNAc
# In short: as §1
# [25] = target: GlcNAc(b1-2)[GlcNAc(b1-4)]Man(a1-3)[GlcNAc(b1-4)][GlcNAc(b1-2)[GlcNAc(b1-6)]Man(a1-6)]Man(b1-4)GlcNAc(b1-4)GlcNAc
# In short: as §1
# [26] = target: GlcNAc(b1-2)[GlcNAc(b1-4)]Man(a1-3)[GlcNAc(b1-4)][GlcNAc(b1-2)[GlcNAc(b1-6)]Man(a1-6)]Man(b1-4)GlcNAc(b1-4)[Fuc(a1-6)]GlcNAc
# In short: as §1
# [27] = target: GlcNAc(b1-2)[GlcNAc(b1-6)]Man(a1-6)[GlcNAc(b1-2)Man(a1-3)]Man(b1-4)GlcNAc(b1-4)GlcNAc
# In short: as §1
# [28] = target: GlcNAc(b1-2)[GlcNAc(b1-6)]Man(a1-6)[GlcNAc(b1-2)Man(a1-3)]Man(b1-4)GlcNAc(b1-4)[Fuc(a1-6)]GlcNAc
# In short: as §1
# [29] = target: GlcNAc(b1-2)[GlcNAc(b1-6)]Man(a1-6)[GlcNAc(b1-4)][GlcNAc(b1-2)Man(a1-3)]Man(b1-4)GlcNAc(b1-4)GlcNAc
# In short: as §1
# GlcNAc(b1-3)Fuc = target: GlcNAc(b1-3)Fuc
# In short: as §1
# GlcNAc(b1-3)Gal = target: GlcNAc(b1-3)Gal
# In short: as §1
# [30] = target: GlcNAc(b1-3)Gal(b1-3)GalNAc
# In short: as §1
binder,measurement,setting,value
Als3-2 (Candida albicans) (protein) KTITGVFNSFNSLTWSNAATYNYKGPGTPTWNAVLGWSLDGTSASPGDTFTLNMPCVFKFTTSQTSVDLTAHGVKYATCQFQAGEEFMTFSTLTCTVSNTLTPSIKALGTVTLPLAFNVGGTGSSVDLEDSKCFTAGTNTVTFNDGGKKISINVDFERSNVDPKGYLTD,glycan array binding signal (z-score),[1],0.112
same,glycan array binding signal (z-score),[2],-0.421
same,glycan array binding signal (z-score),[3],0.905
same,glycan array binding signal (z-score),GalNAc(b1-4)GlcNAc6S,0.73
same,glycan array binding signal (z-score),GalNAc(b1-6)GalNAc,-0.082
same,glycan array binding signal (z-score),GalNAc3S(b1-4)GlcNAc,-0.156
same,glycan array binding signal (z-score),GalNAc3S(b1-4)GlcNAc3S,-0.584
same,glycan array binding signal (z-score),[4],-0.351
same,glycan array binding signal (z-score),GalNAc4S6S(b1-4)GlcNAc,-0.416
same,glycan array binding signal (z-score),GalNAc6S(b1-4)GlcNAc,-0.595
same,glycan array binding signal (z-score),Glc(a1-4)Glc,-0.488
same,glycan array binding signal (z-score),[5],-0.222
same,glycan array binding signal (z-score),Glc(a1-6)Glc(a1-6)Glc,-0.642
same,glycan array binding signal (z-score),[6],0.567
same,glycan array binding signal (z-score),Glc(b1-4)Glc,-0.551
same,glycan array binding signal (z-score),Glc(b1-6)Glc,-0.611
same,glycan array binding signal (z-score),GlcA(b1-3)Gal,-0.578
same,glycan array binding signal (z-score),GlcA(b1-3)GlcNAc,-0.317
same,glycan array binding signal (z-score),GlcA(b1-6)Gal,-0.466
same,glycan array binding signal (z-score),[7],-0.554
same,glycan array binding signal (z-score),[8],1.02
same,glycan array binding signal (z-score),[9],-0.564
same,glycan array binding signal (z-score),[10],-0.692
same,glycan array binding signal (z-score),[11],-0.091
same,glycan array binding signal (z-score),[12],-0.712
same,glycan array binding signal (z-score),[13],-0.724
same,glycan array binding signal (z-score),[14],-0.427
same,glycan array binding signal (z-score),[15],-0.62
same,glycan array binding signal (z-score),[16],-0.426
same,glycan array binding signal (z-score),[17],0.311
same,glycan array binding signal (z-score),[18],-0.581
same,glycan array binding signal (z-score),[19],-0.617
same,glycan array binding signal (z-score),[20],-0.058
same,glycan array binding signal (z-score),[21],-0.374
same,glycan array binding signal (z-score),[22],-0.63
same,glycan array binding signal (z-score),[23],-0.603
same,glycan array binding signal (z-score),[24],-0.609
same,glycan array binding signal (z-score),[25],-0.57
same,glycan array binding signal (z-score),[26],-0.664
same,glycan array binding signal (z-score),[27],-0.527
same,glycan array binding signal (z-score),[28],-0.54
same,glycan array binding signal (z-score),[29],-0.7
same,glycan array binding signal (z-score),GlcNAc(b1-3)Fuc,1.12
same,glycan array binding signal (z-score),GlcNAc(b1-3)Gal,-0.723
same,glycan array binding signal (z-score),[30],-0.354
